# Data reported in paper PMC4336329 (PLoS ONE, 2015).
# Screen size: about 310,000 compounds; about 14,000 (4.5%) showed an effect of 50% or more. The effect is printed as a negative number. This is one part of the list.
# Target: human ether-à-go-go-related gene (hERG) potassium channel (human, UniProt Q12809)
# Assay: primary screen, population patch clamp on CHO cells stably expressing hERG
# 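Further: peak tail current of the secondary pulse compared with the same well before compound.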
# Sequence of human ether-à-go-go-related gene (hERG) potassium channel (Q12809 whole entry, looked up): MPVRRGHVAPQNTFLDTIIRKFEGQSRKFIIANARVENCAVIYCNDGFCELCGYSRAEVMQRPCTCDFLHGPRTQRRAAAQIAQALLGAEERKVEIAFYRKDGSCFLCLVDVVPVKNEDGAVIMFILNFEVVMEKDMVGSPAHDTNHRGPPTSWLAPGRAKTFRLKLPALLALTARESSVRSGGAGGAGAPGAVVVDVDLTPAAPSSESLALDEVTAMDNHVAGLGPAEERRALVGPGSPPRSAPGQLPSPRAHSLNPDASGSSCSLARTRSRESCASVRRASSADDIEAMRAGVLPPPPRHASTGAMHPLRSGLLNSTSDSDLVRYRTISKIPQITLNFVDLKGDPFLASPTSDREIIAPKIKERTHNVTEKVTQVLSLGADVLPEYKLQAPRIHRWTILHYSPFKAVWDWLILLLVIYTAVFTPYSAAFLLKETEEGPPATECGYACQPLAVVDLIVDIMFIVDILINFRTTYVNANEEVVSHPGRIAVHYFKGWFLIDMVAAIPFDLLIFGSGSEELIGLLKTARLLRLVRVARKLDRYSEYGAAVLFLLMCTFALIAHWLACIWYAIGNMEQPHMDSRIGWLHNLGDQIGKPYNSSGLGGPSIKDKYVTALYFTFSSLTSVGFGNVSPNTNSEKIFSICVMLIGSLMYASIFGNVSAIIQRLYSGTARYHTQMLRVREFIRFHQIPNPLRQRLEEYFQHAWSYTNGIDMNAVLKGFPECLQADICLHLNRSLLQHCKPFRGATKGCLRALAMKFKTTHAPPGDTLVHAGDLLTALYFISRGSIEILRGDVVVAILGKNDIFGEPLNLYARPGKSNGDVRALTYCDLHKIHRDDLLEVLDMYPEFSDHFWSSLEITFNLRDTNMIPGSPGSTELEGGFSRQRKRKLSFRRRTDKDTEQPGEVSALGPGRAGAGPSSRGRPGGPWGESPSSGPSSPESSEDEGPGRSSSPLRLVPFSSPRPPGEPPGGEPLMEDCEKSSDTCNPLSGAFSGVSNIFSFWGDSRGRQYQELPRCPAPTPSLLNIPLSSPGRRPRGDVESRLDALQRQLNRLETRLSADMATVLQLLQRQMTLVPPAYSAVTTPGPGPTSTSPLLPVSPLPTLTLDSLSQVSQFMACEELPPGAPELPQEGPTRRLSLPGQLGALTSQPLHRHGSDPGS
row,SMILES,"hERG current change (%, negative = inhibition) at 10uM"
1,COc1ccc(CC(=O)NNC(=O)c2cccs2)cc1OC,2.59%
2,CC(C)c1ccc(NC(=O)CSc2n[nH]c(=O)n2C2CC2)cc1,-4.38%
3,O=C(O)CCC(=O)NCc1c(Cl)cccc1Sc1ccc(Cl)cc1,11%
4,COc1ccc(S(=O)(=O)N2CCN(C(=O)c3ccco3)CC2)cc1OC,-3.33%
5,COc1cccc(C2OC(=O)c3ccccc3N2C(C)=O)c1OC(C)=O (stereo not shown),10.2%
6,CCC(OC(=O)c1nsc(Cl)c1Cl)C(=O)NCc1ccco1 (stereo not shown),10.4%
7,O=C(Nc1cccc(S(=O)(=O)N2CCOCC2)c1)c1ccc2ccccc2n1,-1.59%
8,N#Cc1c(N(CCO)CCO)nc(N)c2c(N)nc3c(c12)CC(=O)N3CC1CCCO1 (stereo not shown),10%
9,CCOC(=O)c1sc2nc(N3CCOCC3)c3c(c2c1N)CC(C)(C)N(C)C3,2.29%
10,CN(C)S(=O)(=O)c1ccc2c(c1)nc(CCC(=O)NCCc1ccc(Cl)cc1)n2C,-41%
11,CCc1nnc(NC(=O)c2cc(S(=O)(=O)N3CCCCC3)ccc2C)s1,0.426%
12,COc1cccc(/C=N/n2nnnc2N)c1O,5.64%
13,CCCn1c(N)c(N(CCOC)C(=O)c2ccc(F)cc2)c(=O)[nH]c1=O,13.1%
14,Cl.O=C(NCCCN1CCOCC1)c1cn(-c2ccccc2)nc1-c1cccs1,-39.9%
15,Cc1ccc(NC(=O)COc2ccc3c(c2)CCC3)nc1,11.1%
16,Cc1nn(CC(=O)Nc2cccc(S(N)(=O)=O)c2)c(C)c1[N+](=O)[O-],23.8%
17,Cc1ncc(CO)c(/C=N/NC(=O)c2cc(Br)ccc2O)c1O,3.52%
18,CN(C)C(=O)C12CCC(C)(c3nc4ccccc4nc31)C2(C)C (stereo not shown),8.51%
19,Cc1cc(C)c(C)c(S(=O)(=O)N2C(=S)NC(=O)C2CC(C)C)c1C (stereo not shown),12.9%
20,CCCCNC(=O)c1cc2c(=O)n3cccc(C)c3nc2n(CCN2CCOCC2)c1=N,-86%
21,O=C(O)CCC(=O)Nc1ccccc1C(=O)Nc1ccccc1,15.6%
22,Cc1nn(C)c(C)c1P(=S)(c1c(C)nn(C)c1C)N(C)C,-6.71%
23,CS(=O)(=O)c1ccc(C(=O)OCc2nnc(-c3ccc(Cl)cc3)o2)cc1[N+](=O)[O-],11.7%
24,COC(=O)CN(c1ccc(Cl)cc1C)S(C)(=O)=O,13.9%
25,CC(=O)c1cc(F)c(N2CCN(C(=O)C(C)(C)C)CC2)cc1C,-3.1%
26,CC1CN(C(=S)SCCN2Cc3ccccc3C2=O)CC(C)O1 (stereo not shown),-6.85%
27,O=C(N/N=C/c1cc(Br)c(Br)o1)c1cc2ccccc2o1,12.9%
28,N#C/C=C1/NC(=O)c2ccccc2S1,3.78%

row,SMILES,"hERG current change (%, negative = inhibition) at 10uM"
1,COCCCNc1nc2ccccc2nc1NS(=O)(=O)c1cccc(C)c1,13.3%
2,Cc1c(Cl)c([N+](=O)[O-])nn1CCCC(=O)Nc1cccnc1,-2.96%
3,O=C1c2ccccc2S(=O)(=O)N1CC(O)Cn1ccc2ccccc21 (stereo not shown),-6.66%
4,CC1CCC(C(=O)NC(C(=O)N2CCC3(CC2)OCCO3)C(C)C)CC1 (stereo not shown),-7.36%
5,COc1cccc(N(CC(=O)N2CCOCC2)S(C)(=O)=O)c1,22.9%
6,O=C(CCC1CCCC1)Nc1ccccc1-c1ccccc1,2.88%
7,C[C@H](CCC(=O)NCC(=O)O)[C@H]1CC[C@H]2[C@@H]3[C@H](O)C[C@@H]4C[C@H](O)CC[C@]4(C)[C@H]3C[C@H](O)[C@]12C.O,11.3%
8,O=C(Oc1coc(CSc2ncccn2)cc1=O)c1cccs1,-7.2%
9,C/C(=N\NC(=O)C(O)c1ccccc1)c1ccc(Cl)cc1 (stereo not shown),22.4%
10,Cc1nc2ccccc2c2c1CC(C)S2 (stereo not shown),-16.8%
11,Cc1cc(/C=N/NC(=O)c2ccncc2)c(C)n1-c1ccccc1,19.8%
12,Nc1c(C(=O)CSc2ccccn2)c(=O)[nH]c(=O)n1C1CC1,-0.178%
13,Cc1ccc(C)c(N(CC(=O)NC2CCCC2)C(=O)c2cc3cc4cc(C)ccc4nc3s2)c1,1.54%
14,COc1ccc(/C=C/C(=O)O)cc1S(=O)(=O)N1CCc2ccccc21,8.17%
15,NC(=O)c1ccc(SCC(=O)OCC(=O)N2CCCCC2)c([N+](=O)[O-])c1,-1.55%
16,O=C1CC(C(=O)N(CC2CCCO2)C(C(=O)NC2CCCCC2)c2ccncc2)CS1 (stereo not shown),-1.73%
17,CCN1CCN(c2cc(-c3ccccc3)nc3cc(-c4cccc(F)c4)nn23)CC1,0.257%
18,CCOC(=O)c1cnc2cc(C)nn2c1-c1ccccc1,3.92%
19,COc1ccc(N2CC(C(=O)N3CCC(c4nc5ccccc5[nH]4)CC3)CC2=O)cc1 (stereo not shown),-19.3%
20,Cc1ncsc1C(=O)N1N=C2/C(=C/c3ccc(N4CCOCC4)cc3)CCCC2C1c1ccc(N2CCOCC2)cc1 (stereo not shown),-5.31%
21,O=C(NC1CCCC1)c1ccc(CS(=O)(=O)c2ccc(Br)cc2)o1,-26.8%
22,CCOCCOC(=O)C(C)Oc1ccc(Oc2nc(Cl)ccc2Cl)cc1 (stereo not shown),16.8%
23,COC(=O)c1c(C)oc2ccc(N(C(=O)Oc3ccccc3)S(=O)(=O)c3ccc(Cl)c([N+](=O)[O-])c3)cc12,14.6%
24,CCOCCCn1c(C)nc2c(c1=O)c1nc3ccccc3nc1n2-c1ccc2c(c1)OCCO2,9.85%
25,COCCn1c(SCC(=O)Nc2ccc(F)cc2)nc2ccccc2c1=O,-48.6%
26,CCCC(=O)Nc1nnc(C2CCCO2)s1 (stereo not shown),8.76%
27,COC(=O)CCC(=O)Nc1ccc(S(=O)(=O)N2CCc3ccccc32)cc1,12.9%
